T1: TIGIT (UniProt Q495A1 22-141, limits assumed)
T1 construct: also called T cell immunoreceptor with Ig and ITIM domains; hTIGIT
T1 sequence (looked up): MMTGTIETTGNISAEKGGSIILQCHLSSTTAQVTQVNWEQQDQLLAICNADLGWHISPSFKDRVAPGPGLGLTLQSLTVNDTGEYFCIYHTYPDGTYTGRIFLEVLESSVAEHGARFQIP

B1: TIGIT-31-24 (VHH-Fc) (Fc fusion)
chain: EVQLVESGGGLVQPGGSLRLSCAASGRTFSMGWFRQAPGKEREFVATVRWGTSSTYYADSVKGRFTISADNSKNTAYLQMNSLKPEDTAVYYCAAETFGSGSSLMSEYDWGQGTLVTVSSGGGGS[in this place human IgG1 Fc with C220S (EU numbers)]
B2: TIGIT-31-25 (VHH-Fc) (Fc fusion)
chain: EVQLVESGGGLVQPGGSLRLSCAASGNIFSRYIMGWFRQAPGKEREWVAGISNGGTTKYADSVKGRFTISADNSKNTAYLQMNSLKPEDTAVYYCAQGWKIVPTNWGQGTLVTVSSGGGGS[in this place human IgG1 Fc with C220S (EU numbers)]
B3: TIGIT-31-28 (VHH-Fc) (Fc fusion)
chain: EVQLVESGGGLVQPGGSLRLSCAASGRTFSSYHMGWFRQAPGKERELVALISRVGVTSYADSVKGRFTISADNSKNTAYLQMNSLKPEDTAVYYCAAVRTYGSATYDWGQGTLVTVSSGGGGS[in this place human IgG1 Fc with C220S (EU numbers)]
B4: TIGIT-31-29 (VHH-Fc) (Fc fusion)
chain: EVQLVESGGGLVQPGGSLRLSCAASGRSRMGWFRQAPGKEREFVATISWSGSAVYADSVKGRFTISADNSKNTAYLQMNSLKPEDTAVYYCAAGGRYSARVWGQGTLVTVSSGGGGS[in this place human IgG1 Fc with C220S (EU numbers)]
B5: TIGIT-31-30 (VHH-Fc) (Fc fusion)
chain: EVQLVESGGGLVQPGGSLRLSCAASGRTYNMGWFRQAPGKEREWVATIYSRSGGSTTYYADSVKGRFTISADNSKNTAYLQMNSLKPEDTAVYYCATYGYDSGRYYSWGQGTLVTVSSGGGGS[in this place human IgG1 Fc with C220S (EU numbers)]
B6: TIGIT-31-34 (VHH-Fc) (Fc fusion)
chain: EVQLVESGGGLVQPGGSLRLSCAASGRSRYGMGWFRQAPGKEREFVSAISWSGISTYYADSVKGRFTISADNSKNTAYLQMNSLKPEDTAVYYCAATQWGSSGWKQARWYDWGQGTLVTVSSGGGGS[in this place human IgG1 Fc with C220S (EU numbers)]
B7: TIGIT-31-41 (VHH-Fc) (Fc fusion)
chain: EVQLVESGGGLVQPGGSLRLSCAASGGTLSSYIMGWFRQAPGKEREFVAAISGWSGGTTNYADSVKGRFTISADNSKNTAYLQMNSLKPEDTAVYYCAAARFAPGSRGYDWGQGTLVTVSSGGGGS[in this place human IgG1 Fc with C220S (EU numbers)]
B8: TIGIT-31-51 (VHH-Fc) (Fc fusion)
chain: EVQLVESGGGLVQPGGSLRLSCAASGRNFRRNSMGWFRQAPGKEREFVAVITRSGGGEVTTYADSVKGRFTISADNSKNTAYLQMNSLKPEDTAVYYCAMSSVTRGSSDWGQGTLVTVSSGGGGS[in this place human IgG1 Fc with C220S (EU numbers)]

Legend:
TIGIT [1] = target: T1, TIGIT; assay: SPR (Carterra), VHH-Fc
TIGIT [2] = target: T1, TIGIT; assay: ELISA

Row | Binder | Kd (TIGIT [1]) | koff (TIGIT [1]) | kon (TIGIT [1]) | ELISA (TIGIT [2])
1 | B1 | 75 nM | 0.066 s⁻¹ | 880000 M⁻¹ s⁻¹ | 3.1
2 | B2 | 154 nM | 86 s⁻¹ | 5.6e+08 M⁻¹ s⁻¹ | 6.2
3 | B3 | 234 nM | 0.1 s⁻¹ | 440000 M⁻¹ s⁻¹ | 3.7
4 | B4 | 1680 nM | 0.00054 s⁻¹ | 320 M⁻¹ s⁻¹ | 7.4
5 | B5 | 93 nM | 93 s⁻¹ | 1e+09 M⁻¹ s⁻¹ | 3.2
6 | B6 | 70 nM | 0.0039 s⁻¹ | 55000 M⁻¹ s⁻¹ | 6
7 | B7 | 750 nM | 1 s⁻¹ | 1.3e+06 M⁻¹ s⁻¹ | 5.8
8 | B8 | 784 nM | 0.067 s⁻¹ | 85000 M⁻¹ s⁻¹ | 12.1

— patent US20260184782A1 (TWIST BIOSCIENCE, published 2026)
